We go through 32 molecules from the antibiotic and cytotoxicity screens of Wong et al. (2023).

SMILES strings stand for the structures. Some of the results follow.

This test relates to S. aureus RN4220. The test is described as follows: growth inhibition call (relative growth <= 0.2). The note with it: 50 µM.
On to `C[C@H]1CN([C@@H](C)CO)C(=O)Cc2cc(NC(=O)Nc3cccc4ccccc34)ccc2O[C@H]1CN(C)C(=O)Nc1ccccc1`, for which the growth inhibition call is “inactive”.

As for `O=C(C[C@@H]1C[C@@H]2c3cc(NS(=O)(=O)c4ccc(F)cc4)ccc3O[C@@H]2[C@H](CO)O1)N1CCOCC1`, the growth inhibition call is “inactive”.

As for `Cc1noc(C)c1NC(=O)Nc1cccc2c1O[C@@H](CN(C)Cc1ccc(C(F)(F)F)cc1)[C@@H](C)CN([C@H](C)CO)C2=O`, the growth inhibition call is “inactive”.

`Cl.Clc1cccc(Cl)c1N=C1NCCN1`: the growth inhibition call is “inactive”.

As to `COc1ccc(S(=O)(=O)N[C@H]2C=C[C@H](CC(=O)NCCc3ccncc3)O[C@@H]2CO)cc1`, the growth inhibition call is “inactive”.

In the case of `Cc1ccc(NC(=O)CC(C)C)cc1`, the growth inhibition call is “inactive”.

Take `C[C@@H]1CN([C@@H](C)CO)C(=O)c2cccc(NC(=O)NC3CCCCC3)c2O[C@@H]1CN(C)Cc1ccc(C(=O)Nc2ccccc2N)cc1`: the growth inhibition call is “inactive”.

Take `COc1ccc(C#Cc2ccc3c(c2)[C@H]2[C@H](CCN2C(=O)Nc2ccc(C(F)(F)F)cc2)[C@H](CO)N3C)cc1`: the growth inhibition call was “inactive”.

Turning to `CN1CCN(C(=O)C[C@@H]2CC[C@@H]3[C@H](COc4ccc(NC(=O)c5cccs5)cc4C(=O)N3C)O2)CC1`, the growth inhibition call was “inactive”.

As to `Nc1nc(=O)c2ncn([C@H]3C[C@H](O)[C@@H](CO)O3)c2[nH]1`, the growth inhibition call was “inactive”.

For `COCC(=O)Nc1ccc2c(c1)C(=O)N(C)[C@H]1CC[C@H](CC(=O)NCc3ccccc3Cl)O[C@@H]1CO2`, the growth inhibition call is “inactive”.

As for `COc1ccc2c3c([nH]c2c1)[C@@H](CO)N(C[C@]13CN(C1)S(=O)(=O)c1cccs1)C(=O)c1ccccc1`, the growth inhibition call was “inactive”.

In the case of `C[C@@H]1CCCCO[C@H](CN(C)C(=O)Nc2cccc3ccccc23)[C@@H](C)CN([C@H](C)CO)C(=O)c2cc(NC(=O)NC3CCCCC3)ccc2O1`, the growth inhibition call was “inactive”.

Regarding `COc1cccc2cc(C(C)=O)oc12`, the growth inhibition call is “inactive”.

Consider `C[C@H]1CN([C@@H](C)CO)C(=O)c2cc(NC(=O)CCCN(C)C)ccc2O[C@H]1CN(C)S(=O)(=O)c1cn(C)cn1`, for which the growth inhibition call was “inactive”.

As for `O=C(NCCCl)N(CCCl)[N+][O-]`, the growth inhibition call was “inactive”.

In the case of `COc1ccc(NC(=O)Nc2cccc3c2O[C@@H](CN(C)C(=O)Nc2ccc(C(F)(F)F)cc2)[C@H](C)CN([C@@H](C)CO)C3=O)cc1`, the growth inhibition call is “inactive”.

As to `O=C(C[C@@H]1CC[C@@H]2[C@H](COC[C@H](O)CN2C(=O)c2ccncc2)O1)NC1CCC1`, the growth inhibition call was “inactive”.

Consider `C[C@H](CO)N1C[C@H](C)[C@H](CN(C)Cc2ccc(-c3ccccc3)cc2)Oc2ccc(NC(=O)C3CCCCC3)cc2CC1=O`, for which the growth inhibition call is “inactive”.

For `Cc1noc(C)c1NC(=O)Nc1ccc2c(c1)C(=O)N([C@H](C)CO)C[C@H](C)[C@H](CN(C)C(=O)Nc1ccc(F)cc1)OCCCC[C@H](C)O2`, the growth inhibition call is “inactive”.

For the molecule `COCC(=O)N1CC(=O)N2[C@H](CO)[C@H](c3ccc(C#Cc4cccnc4)cc3)[C@H]2C1`, the growth inhibition call was “inactive”.

On to `COc1ccc(NC(=O)Nc2ccc3c(c2)C(=O)N([C@@H](C)CO)C[C@H](C)[C@H](CN(C)Cc2ccc(C(=O)Nc4ccccc4N)cc2)O3)cc1`, for which the growth inhibition call is “inactive”.

Take `CCS(=O)(=O)Nc1ccc2c(c1)C(=O)N(C)C[C@@H](OC)[C@@H](C)CN(CCC(F)(F)F)[C@H](C)CO2`: the growth inhibition call was “inactive”.

Turning to `C[C@@H]1CCCCO[C@@H](CN(C)C(=O)CCC(F)(F)F)[C@@H](C)CN([C@H](C)CO)C(=O)c2cc(NC(=O)CCCCCC(=O)Nc3ccccc3N)ccc2O1`, the growth inhibition call is “inactive”.

In the case of `C[C@H]1CCCCN1C(=O)CCS(=O)(=O)c1ccc2c(c1)n(C)c(=O)c(=O)n2C`, the growth inhibition call is “inactive”.

As for `Cc1ccc(S(=O)(=O)N(C)C[C@@H]2Oc3ncc(C#Cc4ccccc4)cc3C(=O)N([C@H](C)CO)C[C@@H]2C)cc1`, the growth inhibition call is “inactive”.

Turning to `O=C(O)CCN1C(=O)c2ccncc2C1=O`, the growth inhibition call is “inactive”.

Regarding `CO[C@H]1CN(C)C(=O)c2cc(NC(=O)Nc3ccccc3F)ccc2OC[C@H](C)N(CCC(F)(F)F)C[C@@H]1C`, the growth inhibition call is “inactive”.

Turning to `Cc1ccc(-c2csc(-c3ccc(C(F)(F)F)cc3)n2)cc1`, the growth inhibition call is “inactive”.

`COc1ccc(CN(C)C[C@H]2OCCCC[C@@H](C)Oc3ccc(NC(=O)Nc4ccc5c(c4)OCO5)cc3C(=O)N([C@@H](C)CO)C[C@H]2C)cc1`: the growth inhibition call was “inactive”.

Take `C[C@@H]1CN([C@@H](C)CO)C(=O)Cc2cc(NC(=O)Nc3ccc(C(F)(F)F)cc3)ccc2O[C@@H]1CN(C)S(C)(=O)=O`: the growth inhibition call was “inactive”.

As for `COc1ccc(S(=O)(=O)N(C)C[C@H]2Oc3c(NC(=O)c4ccncc4)cccc3C(=O)N([C@H](C)CO)C[C@H]2C)cc1`, the growth inhibition call was “inactive”.
